Results from PubChem BioAssay AID2101 (National Center for Advancing Translational Sciences (NCATS), 2009).
Hit rate of the full screen: of about 330,000 compounds, about 300 (0.091%) were called active. The inconclusive results got no clear call from the source; some entries with a clear call stand among them for comparison. Calls come from the whole dose curve; as a rule, active = well fitted inhibition curve with a large enough effect; inconclusive = small, poorly fitted or top-dose-only effect, or effect the other way, or another doubt; inactive = no such curve, though single readings can be large or run the other way. Potencies of inconclusive entries are left out as doubtful fits.

Target: Lysosomal acid glucosylceramidase (Homo sapiens) (UniProt P04062)
Assay: qHTS Assay for Inhibitors and Activators of N370S glucocerebrosidase as a Potential Chaperone Treatment of Gaucher Disease;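 for activity change, negative = inhibition: 0% = full enzyme activity and -100% = no enzyme basal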
Details: N370S GC spleen homogenate, 4MU-glucoside fluorescence; activity change, negative = inhibition: at 59.4 µM (top of the series) unless noted
Potency is the fitted concentration of half-maximal effect.

| Structure (SMILES) | Potency | activity change, negative = inhibition |
| --- | --- | --- |
| Cc1c(CC(=O)N2CCN(C(=O)C3COc4ccccc4O3)CC2)c(=O)oc2cc(O)ccc12 (centres undefined) | inconclusive [activator, partial curve] |  |
| COc1ccc(/C(C#N)=C/c2cccnc2)cc1 | inconclusive [activator, single point] |  |
| COc1ccc2c(c1)CCc1c(C(=O)Nc3c(C)n(C)n(-c4ccccc4)c3=O)noc1-2 |  | inconclusive: 23.7% [activator] |
| Nc1nc(N2CCN(c3ccccc3)CC2)n[nH]1 | inactive |  |
| CC1CCCN(CCCNC(=O)c2cc3c(s2)-c2ccccc2OC3)C1 (centres undefined) | inconclusive [activator, partial curve] |  |
| C=CCN1c2ccccc2[C@]23C[C@@H](C(=O)OC)N(S(=O)(=O)c4ccc(C(F)(F)F)cc4)C2=NC(C(=O)OC)=C(C(=O)OC)[C@H]13 |  | inactive: 3.4% [at 12.8 µM] |
| O=C(O)/C=C/C(=O)c1c(-c2ccccc2)[nH]c2ccccc12 | inactive |  |
| O=C(COc1ccccc1Cl)Nc1ccc(Cl)cn1 | inconclusive [activator, partial curve] |  |
| CCN(CCCNC(=O)CCNC(=O)Cn1cnc2ccccc2c1=O)c1ccccc1 | inconclusive [inhibitor, single point] |  |
| COc1ccccc1OCCCn1cc(C#N)c2ccccc21 | inconclusive [activator, partial curve] |  |
| C=CCn1c(CCC(=O)Nc2ccc(C)c(Cl)c2)nnc1SCC(=O)Nc1ccccc1C | inconclusive [activator, partial curve] |  |
| CCCCc1nc2cc(C(=O)N3CCNC(=O)C3)ccc2o1 | inactive |  |
| N#Cc1nc(-c2ccc(Cl)cc2)oc1NCc1ccco1 | inactive |  |
| C/C=C\C1=C(CO)C(=O)[C@@H]2OC2C1=O (some centres undefined) |  | inactive: 10.7% [at 12.8 µM] |
| Cc1nn2c(nc(N3CCCCC3)c3ccccc32)c1C=O | inactive |  |
| CCOc1ccc(Nc2oc(-c3ccco3)nc2C#N)cc1 | inactive |  |
| O=C(Nc1ccc(S(=O)(=O)N2CCCC2)cc1)C1COc2ccccc2O1 (centres undefined) | inconclusive [inhibitor, single point] |  |
| CN(C)c1ccc(C2OC(=O)C(C)(C)C(=O)C2(C)C)cc1 (centres undefined) | inconclusive [activator, partial curve] |  |
| COc1cc2c(cc1NC(=O)CN(C)Cc1ccc(OC)c(OC)c1)oc1ccccc12 | inconclusive [inhibitor, single point] |  |
| N#Cc1c(-c2ccccc2)nc(SCC(=O)Nc2ccc(OC(F)(F)Cl)cc2)[nH]c1=O | inconclusive [activator, partial curve] |  |
| C=COCCn1c(=N)n(CCC)c2ccccc21 | inconclusive [activator, single point] |  |
| COC(=O)c1cc(CSC(=N)N)ccc1OCCC(C)C | inconclusive [inhibitor, single point] |  |
| CC1=C(/C=C/C(C)=C/C=C/C(C)=C/C(=O)O)C(C)(C)CCC1O (centres undefined) | inconclusive [inhibitor, single point] |  |

| Structure (SMILES) | Potency | activity change, negative = inhibition |
| --- | --- | --- |
| CN(C)c1ccc(-c2cc(C3C4C=CCCC4(C)C(=O)N3Cc3ccccc3)ccc2F)cc1 (centres undefined) | inactive |  |
| COc1cc(O)c2c(c1)OC(c1ccc(O)cc1)CC2=O (centres undefined) | inconclusive [inhibitor, single point] |  |
| Cc1cc(C)n2nc(C(=O)N3CCCC(N4CCN(c5ccccc5C)CC4)C3)cc2n1 (centres undefined) | inactive |  |
| Cc1ccccc1CN1C(=O)/C(=C\c2ccc(C(=O)NCCN3CCOCC3)cc2)Sc2ccccc21 | inconclusive [inhibitor, single point] |  |
| O=C(O)CC(C(=O)O)c1cn(Cc2ccccc2)c2ccccc12 (centres undefined) |  | inactive: -10.1% [at 2.35 µM] |
| C#CCOCCOCCOCCNc1nc(N2CCN(C(=O)CCCCCCCCCCNC(=O)[C@H]([C@@H](C)CC)n3cc(CCCCN=C(N)N)nn3)CC2)nc(N2CCN(C(=O)CCCCCCCCCCNC(=O)[C@H]([C@@H](C)CC)n3cc(CCCCN=C(N)N)nn3)CC2)n1 | inconclusive [inhibitor, partial curve] |  |
| Cc1ccc(NC(=O)COC(=O)CNC(=O)c2ccc(Cl)cc2Cl)cc1S(=O)(=O)N1CCOCC1 | inconclusive [inhibitor, single point] |  |
| O=S(Cc1ccc(Br)cc1)Cc1nnc(SCc2c(F)cccc2Cl)n1-c1ccccc1 (centres undefined) | inactive |  |
| Cc1ccc(S(=O)(=O)N2CCCCC2)cc1NC(=O)COC(=O)CNC(=O)c1cc(Cl)cc([N+](=O)[O-])c1 | inconclusive [inhibitor, full curve, poor fit] |  |
| O=C(COc1ccccc1Cl)NCc1ccccc1 | inconclusive [activator, single point] |  |
| CCN1CCN(CCNC(=O)c2ccc(/C=C3\Sc4ccccc4N(Cc4ccccc4F)C3=O)cc2)CC1 | inconclusive [inhibitor, single point] |  |
| O=C(Oc1ccc2ccc(=O)oc2c1)c1ccccc1 | inconclusive [activator, partial curve] |  |
| Fc1ccccc1-c1ccc(/C=N/Nc2nc3ccccc3[nH]2)o1 | inactive |  |
| N#C/C(C(=O)c1ccccc1)=C1/CCCCCN1 | inactive |  |
| Cc1ccccc1NC(=O)c1nc(S(C)(=O)=O)ncc1Cl | inactive |  |
| O=C(c1ccccc1)c1ccc(OCC(O)CNCc2ccc(Cl)cc2)cc1 (centres undefined) | inconclusive [inhibitor, partial curve] |  |
| CCc1nc(NC2CCCCC2)c(C#N)c2c1COC(C)(C)C2 | inconclusive [activator, partial curve] |  |
| C[C@H](NC(=O)c1nc[nH]c1C(=O)N[C@H](C)c1ccccc1)C(=O)OCc1ccccc1 | inconclusive [activator, single point] |  |
| COC(=O)NC(c1cccc(F)c1)[C@@]1(C(=O)OC)CCCC1=O (some centres undefined) |  | inactive: -1.47% [at 12.8 µM] |
| O=C(c1ccccc1F)c1cc2c(cc1[N+](=O)[O-])OCCO2 | inconclusive [inhibitor, single point] |  |
| O=C(Nc1ccc2c(c1)OCO2)c1c(F)cccc1F | inactive |  |
| Cc1nc([N+](=O)[O-])c(Br)n1Cc1ccc(Cl)c(Cl)c1 | inactive |  |
| O=C(CCc1ccccc1)NCCSc1ccccc1 | inactive |  |

| Structure (SMILES) | Potency | activity change, negative = inhibition |
| --- | --- | --- |
| COc1ccccc1NC(=O)c1ccc(COc2ccccc2OC)o1 | inconclusive [activator, partial curve, poor fit] |  |
| CCCCCc1ccc(-c2cn(CCCOCc3ccccc3)nn2)cc1 | inconclusive [activator, partial curve] |  |
| O=C(NC1CC1)c1cc2c(s1)-c1ccccc1OC2 | inconclusive [activator, single point] |  |
| Cc1ccc(-n2nc(C)c(NC(=O)COC(=O)c3ccccc3NCCO)c2C)cc1 | inconclusive [activator, partial curve] |  |
| Cc1c2ccccc2nc2c(F)c(NCCO)c(F)c(F)c12 | inactive |  |
| Cc1nc(Nc2ccccc2)c2oc3ccc(Cl)cc3c2n1 | inconclusive [activator, single point] |  |
| COc1ccc(/C=C/C(=O)Nc2ccccc2C(N)=O)cc1S(=O)(=O)N1CCOCC1 | inconclusive [inhibitor, partial curve] |  |
| CCCc1cc(C(=O)Nc2ccccc2SC)no1 | inactive |  |
| CCOc1ccc(N(CC(=O)Nc2nccs2)S(=O)(=O)c2c(C)noc2C)cc1 | inconclusive [inhibitor, partial curve] |  |
| CCn1cc(C(=O)NCc2ccc3c(c2)OCO3)c2cc(OC)c(OC)cc2c1=O | inconclusive [activator, partial curve] |  |
| COCC(=O)Nc1c(C(=O)Nc2ccc3c(c2)OCCO3)oc2ccccc12 | inactive |  |
| COc1cccc(CNc2nc3ccccc3n2CCN2CCCCC2)c1 | inconclusive [inhibitor, single point] |  |
| CCc1ccc(CN(C)CC(O)COc2cccc3ccccc23)cc1 (centres undefined) | inconclusive [inhibitor, partial curve] |  |
| CCOC(=O)c1sc(N(Cc2ccccc2)C(=O)COC(=O)c2cnccn2)nc1C | inactive |  |
| CCC(=O)c1ccccc1OCCN1CCN(Cc2ccccc2)CC1 | inconclusive [inhibitor, single point] |  |
| COc1ccc(CCC(C)Nc2ccccc2F)cc1 (centres undefined) | inconclusive [inhibitor, single point] |  |
| COc1ccccc1-c1nn2c(C3COc4ccccc4O3)nnc2s1 (centres undefined) |  | inconclusive: 28.2% [activator] |
| Cc1ccc2nc(CCc3ccc(N)cc3)[nH]c2c1 | inconclusive [inhibitor, partial curve, poor fit] |  |
| Cc1ccc(NC(=O)c2cc(C)n(-c3cccc(C)c3)c2C)cc1 | inconclusive [activator, partial curve] |  |
| CC(C)CNC(=O)c1nn(Cc2ccccc2)c(=O)c2ccccc12 | inconclusive [activator, single point] |  |
| Oc1ccc(N=Cc2sc3ccccc3c2Cl)cc1 | inconclusive [inhibitor, partial curve] |  |
| CN=Cc1nc(-c2ccccc2)oc1O | inactive |  |
| O=C(O)CC(CC(=O)N1CCOCC1)c1ccccc1 (centres undefined) | inconclusive [inhibitor, partial curve, poor fit] |  |
